For 83 variants, self-cleavage results are on record in the RNAGym collection of RNA variant scans (doi:10.1093/nar/gkz1192).

The labels stand for the following.
B1: CPEB3 Ribozyme (parent)
chain: UAACAGGGGGCCACAGCAGAAGCGUUCACGUCGCAGCCCCUGUCAGAUUCUGGUGAAUCUGCGAAUUCUGCUGUAUAUCUC

Read counts are not given, so values of variants with three or more changes are uncertain.

The variants in this series derive from B1. As to the kind of experiment: self-cleavage, relative activity (ratio to wild type); higher = more cleavage; in vitro, sequencing. A digest of the protocol: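 Barcoded CPEB3 ribozyme mutants, produced by rounds of error-prone PCR, self-cleaved while being transcribed with T7 RNA polymerase for 5 hours at 37°C and during a subsequent 15 min DNase I step before EDTA was added. Sequencing of template-switched cDNA on Illumina gave cleaved and total reads, and DNA sequencing assigned barcodes to variants. Each variant's relative activity is its cleaved/total read fraction divided by the unmutated ribozyme's fraction, averaged across three batches. A variant needed a minimum of 5 reads.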
For the variant G9A C12U U41C, the self-cleavage was 0.39. In the case of G10A A18G G22U A28G A35G G36A U41A it was 0.04; in that of G9A C34U A57G A75U, 0.06; in that of G9C A21G U43C, 0.23.

Consider G9C A15U A21U A64G, for which the self-cleavage was determined as 0.16. In the case of G10A A13G U54C U72C it was 0.06. On to G9A G10A C39U, for which the self-cleavage is 0.32. In the case of G9U C29U A47G it was 0.19; in that of G9A C17U C29G U48C U58C, 0.07; in that of G9A U43C G46U U76C, 0.22. For G9A C11G G19C U31A A35G A64G A65G, the self-cleavage came out at 0.16. On to G9A C12U C23U A28G, for which the self-cleavage was determined as 0.05.

Turning to G9U A13C U26C A47G U78C, the self-cleavage is 0.04. As for G9U A35U U54C A56G U72C, the self-cleavage stood at 0.07. Next, G9A C11U A20G A28G A64G: 0.03; G9U U41G U60A A65G: 0.04; G9A U26C U76C: 0.1.

As to G9A U25C U48C C50A G53A A56G U69C, the self-cleavage is 0.09. Consider G9U G10U A13U U31A A64G, for which the self-cleavage stood at 0.06. Next, G9U U31C A45G G70A: 0.17; G9A G22A U26A A45U A56C: 0.06. In the case of G9A U58C U67C it was 0.12; in that of G9A U41C U58C U67A, 0.05; in that of G9U A13U A20G U31C U60C U72C U78A, 0.06. In the case of G9A G30U C40U G42A U80C it was 0.34. As for G9C C11G A45U U72G A77C, the self-cleavage is 0.03. Next, G9A U25C A35U A65G: 0.05; G9U A13G A21G U26C A65U: 0.2. On to G9A U25C A57G, for which the self-cleavage stood at 0.26. G9U C11U G42U A56U U60C A65G A77U: the self-cleavage worked out at 0.03. Turning to G9U G73A C81U, the self-cleavage came out at 0.15.

With G9U A13G A64U, the self-cleavage was 0.18. In the case of G9C A47U U72C it was 0.33.

For the variant G9C A28U C34A U43C G70A U78C, the self-cleavage was 0.04. Take G9U A45U U78C: the self-cleavage amounted to 0.13.

Take G9U U26A U54C A56G G70A: the self-cleavage was found to be 0.03. Next, G9A C40U U54G: 0.07; G9A C12U A20C G52A U69C U80C: 0.04; G9U A35U A57U: 0.14. Regarding G9U C32A U54C U60A U69A, the self-cleavage is 0.1. As to G9U G42A G61C G70U, the self-cleavage came to 0.04. Next, G9A U43A G52C A57G: 0.22.

For G9A U26A G46A A77G, the self-cleavage amounted to 0.04. Regarding G9A C23A G42C U49C U74C U80A, the self-cleavage was determined as 0.05. For the variant G9C C59G G73A, the self-cleavage is 0.29. As for G9C C40U U54A, the self-cleavage was found to be 0.1. Next, G9A G24C G42A: 0.2; G9A U25C U60A U74A: 0.36; G9A U26C U48C U54A: 0.14. In the case of G9C G36U U41C U43C U80C, the self-cleavage turned out to be 0.07.

With G9A C32G A77U, the self-cleavage was determined as 0.17.

Turning to G9A C17U A28U U60C, the self-cleavage was determined as 0.14. Turning to G9C A18G U67C, the self-cleavage amounted to 0.15.

For the variant G10A A15G U48C A64G, the self-cleavage stood at 0.16. Next, G9C A21U C44U U54A: 0.05; G9U G36U U78C: 0.07; G9C U49C U60C A64U U72A: 0.05. Consider G9A C37U U41C C71U, for which the self-cleavage stood at 0.07. For the variant G9U U41A G53A, the self-cleavage was 0.16.

In the case of G10A A18G C38G A45U U74C, the self-cleavage was found to be 0.03.

In the case of G9A U58C U60C U66C U67A, the self-cleavage amounted to 0.11. Take G9C U41C A45C A47G U54C U60A A65U: the self-cleavage was found to be 0.08. Consider G9A U49C U60A, for which the self-cleavage came out at 0.05. G9U U41C U49C G52A U67A: the self-cleavage turned out to be 0.06. In the case of G9A U31C U69C A77U it was 0.04; in that of G9U A13U A57G, 0.21.

As for G10A A15U U48C U72A, the self-cleavage worked out at 0.06. In the case of G9A C14G C23U A47U U51A U69C it was 0.04.

G9A C14U C44U A64U: the self-cleavage was determined as 0.07. Consider G9A U69G U76C, for which the self-cleavage worked out at 0.14.

For G9C C12U A20U U60A, the self-cleavage was found to be 0.29. Next, G9U U51C A65G U80A: 0.11; G10A A18U U49C G55U: 0.14; G9C U31C U60C A75G: 0.15.

As for G9C A13C A18G A45U U48C U49C, the self-cleavage was determined as 0.41.

With G9U U31C U80C, the self-cleavage was found to be 0.2.

For the variant G9A C12A U25C U60A, the self-cleavage is 0.16. On to G9U A21U U31A U51G G52A U72A A77C, for which the self-cleavage stood at 0.03. With G9U U25C C59U, the self-cleavage is 0.06. Next, G9C A13G A15G C23U A45G A47G A64G: 0.08. In the case of G10A A20G U25C U66C G73A A77G it was 0.04; in that of G9U A18G A47U G52U, 0.07; in that of G9U C23U G70U, 0.03.
